Laboratory results from a compilation of properties of binary mixtures (doi:10.1021/jp3100377).
The densities may have been worked out from excess volumes.

Test: xn = mol fraction of the nth substance listed
Conditions: 100 kPa

CC(=O)[O-].CC[n+]1ccn(C)c1 + O
Conditions | mass density [kg/m3]
293.12 K, x2 = 0.404 | 1109.5
293.14 K, x2 = 0.6028 | 1111.7
293.15 K, x2 = 0.802 | 1103
293.19 K, x2 = 0.2 | 1106.8
303.14 K, x2 = 0.404 | 1103.5
303.19 K, x2 = 0 | 1097.2
303.2 K, x2 = 0.6028 | 1105.6
303.22 K, x2 = 0.802 | 1097.2
312.97 K, x2 = 0.2 | 1094.6
313.12 K, x2 = 0.802 | 1091.1
313.17 K, x2 = 0 | 1091.1
313.26 K, x2 = 0.6028 | 1099.5
323.19 K, x2 = 0.2 | 1088.7
323.25 K, x2 = 0.404 | 1091.3
333 K, x2 = 0.404 | 1085.5
333.12 K, x2 = 0.2 | 1082.9
333.15 K, x2 = 0 | 1078.7
343.11 K, x2 = 0.802 | 1070.9
343.13 K, x2 = 0.2 | 1077.1
343.19 K, x2 = 0.404 | 1079.8
343.2 K, x2 = 0.6028 | 1081
353.13 K, x2 = 0.6028 | 1075.4
353.16 K, x2 = 0 | 1067.2
353.17 K, x2 = 0.2 | 1071.7
353.23 K, x2 = 0.404 | 1074
